The text below walks through data of PMC12136788.

This is one part of the list.

T1: UNK ZnF1-3 (human, UniProt Q9C0B0 31-174)
T1 sequence: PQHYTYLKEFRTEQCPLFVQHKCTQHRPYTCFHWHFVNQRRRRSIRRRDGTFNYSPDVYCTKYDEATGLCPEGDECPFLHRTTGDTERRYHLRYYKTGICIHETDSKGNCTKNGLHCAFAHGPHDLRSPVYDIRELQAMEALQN

B1: chr17:65740002:65740003:+_ENSG00000130935_ENST00000581375|hu_hu|hu_hu_hu_mus_False|38_98 (ssRNA)
RNA: GGGAGUUCUACAGUCCGACGAUCAACAAAUCUUUCUCUGGAUGAAGAACAGGAAGAUUCAUAUUAAAAAAAAUAUAUAUCCAUCAAGUUAGGUGUGUAAUAUCAGACUUUACUCCCAGCACUUUGGGAGGUGGAUCUCUGAGUCAACAGAGGAUUGAGCAUCA
B2: 75761440_75765194_482_CDS_ENSMUSG00000032932_ENSMUST00000046283|mouse|control|control (ssRNA)
RNA: GGGAGUUCUACAGUCCGACGAUCCUCGGCCAUCUCCUUUAGCUUCAGCAGCAAUCGAGAGCCGACAAACUCUGGAGAAACGAUGAUGGUUUCAUUACUUGUCACAGAAAACUCAGCCAUCCCAUUUCUGUGUAAAACCUUAAACAACAGAGGAUUGAGCAUCA
B3: chr4:184596322:184596323:+_ENSG00000168538_ENST00000334690|hu_mus|FALSE|FALSE (ssRNA)
RNA: GGGAGUUCUACAGUCCGACGAUCGGCGUUUUGUGUAUCUUGUUUCAACUCACUGAAGAAAGCUAUUUUAAACUGAUGUCUAACAAACAAAAGCUGGUGUGUUGUUUUAUUCAAAAAUUCCUUAUGAGAUUUCACUCUUCUGAUCAACAGAGGAUUGAGCAUCA
B4: chr4:71639242:71639243:+_ENSG00000018189_ENST00000226328|hu_hu|FALSE|FALSE (ssRNA)
RNA: GGGAGUUCUACAGUCCGACGAUCACCGUCUCCUUCAGUACCUUUACUGCUGUUCCCGUCCUUGAGAUACAUUGAAAAAUCUAUAACUCCAACCUGAGAGUCCAAGUCUUCUCCUUUCAUACAGAAAUUGGCAUCAAUGACAUUCAACAGAGGAUUGAGCAUCA
B5: chr11:100904286:100904287:+_ENSMUSG00000019302_ENSMUST00000044721|mus_hu|FALSE|FALSE (ssRNA)
RNA: GGGAGUUCUACAGUCCGACGAUCAUGGAUGAUACCAAGGAUAACAGACAUCUUCAUCUUAAAGGAGUUCAAGAACGUCAGUUUAUUGGUAGCAAUGUUCCAAAUUGGAUCAAUGCCAAAAGGGUAUGGUCCACCAAACACUCCCAACAGAGGAUUGAGCAUCA
B6: chr17:56552419:56552420:-_ENSMUSG00000013236_ENSMUST00000086828|mus_mus|mus_mus_mus_hu_False|8_8 (ssRNA)
RNA: GGGAGUUCUACAGUCCGACGAUCAAAAAAUACACUAUUUAAAAAAAAUGAAAUGUCACGGGAUACAGUUACACUGAGAGUUUUAAAAGAAAGCUGGAUUCUGGUCCCAGCCCAGUGUCCCCAGGCUGAGUGCGGAAGAGGAGCCAACAGAGGAUUGAGCAUCA
B7: chr3:176740097:176740098:-_ENSG00000177565_ENST00000430069|hu_mus|hu_hu_hu_mus_True|8_68 (ssRNA)
RNA: GGGAGUUCUACAGUCCGACGAUCUGUUUUGUAUACCACAAAAGGAGGCACUUUCAGUAUCUGCAAAAGGUAUUUAAUCCUAAAACAUACUCACCUAGAGGAUAACUCAGGAAAACAAUCUGUUACACUAGUAUCUAUACUCCACAACAGAGGAUUGAGCAUCA
B8: chr1:58468927:58468928:-_ENSMUSG00000026034_ENSMUST00000148330|mus_mus|mus_mus_mus_hu_False|38_58 (ssRNA)
RNA: GGGAGUUCUACAGUCCGACGAUCAAUUACUGAAAAAGAUGUUCAUUACCUUAGCUAUGUACUUAAUGAACCAAAUUAUCUAAAAAAAAUAAACAUGUUUACAAAUUAAUGUUAAGAAUUUACAAAGCUGUACAAAAUAACUUACAACAGAGGAUUGAGCAUCA
B9: chr4:113189463:113189464:+_ENSG00000138660_ENST00000274000|hu_hu|motif|central (ssRNA)
RNA: GGGAGUUCUACAGUCCGACGAUCUACAGGAUUUACAAAUCCAGAAUACUCGGAAUUUCCAUUAUCAUCCAUUUCGGCACGGACAAAAUCAUUUUCCCACUCCAGCCCAUUGGAAUCAUCAGAGGCUGAUGUAGGAUUACUUCCCAACAGAGGAUUGAGCAUCA
B10: chr17:56552419:56552420:-_ENSMUSG00000013236_ENSMUST00000086828|mus_mus|mus_mus_mus_hu_False|28_28 (ssRNA)
RNA: GGGAGUUCUACAGUCCGACGAUCAAAAAAUACACUAUUUAAAAAAAAUGAAAUGUCACGGGAUACAGUUACACUGAGAGUUUUAAAAGAAAGCUGGAUUCUGGUCCUUGCCAAAAGUCCCCAGGCUGCAGAGCGGGGAGGAGCCAACAGAGGAUUGAGCAUCA
B11: 13574355_13574475_1963_CDS_ENSMUSG00000005397_ENSMUST00000005532|mouse|control|control (ssRNA)
RNA: GGGAGUUCUACAGUCCGACGAUCGUUGUACAGGACAAACACGCUGUCCACAGAGAGCUGCUGGGUGCUGGGCAGGGCUGGCCUGGCGUCAUCGUGGGCACACUCCUGGAAGGUGAUGGUCUGACGCCACUGGUAAAUAUGGGUCAACAGAGGAUUGAGCAUCA
B12: chr3:176768308:176768309:-_ENSG00000177565_ENST00000430069|hu_mus|motif|central (ssRNA)
RNA: GGGAGUUCUACAGUCCGACGAUCACUGAGGUUCCAGAUUCUUGCCGUGGAGUCUCCAGACCCUGAUGCCAGGAGAUCACGGACAGGGUUCCAGGCACAGAUGAAAACUUCAGAUUCAUGGCCCCGAAGCACAACCGCUUUAUUCAACAGAGGAUUGAGCAUCA
B13: 64966598_64966718_4841_CDS_ENSG00000171988_ENST00000542921|human|control|control (ssRNA)
RNA: GGGAGUUCUACAGUCCGACGAUCAUCUUUUACAUAUUUAUCAACUAUGAUCUUACUAUCUACACUAUUUUGUAUAUCACUAGAUGUAGAGGCUAUUAAGUUGACAGAACAUGGCUUAAUAAUUUCUGAUACAGAAUUCCCUGACAACAGAGGAUUGAGCAUCA
B14: 138178366_138178486_2588_3pUTR_ENSMUSG00000041570_ENSMUST00000048309|mouse|control|control (ssRNA)
RNA: GGGAGUUCUACAGUCCGACGAUCCCCUGGGGUUGCUGGCUCUUAGGUCAUAGUCCUGAAGAAGCUUAGAUGCAUCAUCCAUGUCGGAGUCUAAGCUAACAGUAUAAUCUCUCAAGGAGGAGUCUUCGUCCAUGGUCUCCGGAACAACAGAGGAUUGAGCAUCA
B15: chr16:42174279:42174280:+_ENSMUSG00000061080_ENSMUST00000099761|mus_mus|FALSE|FALSE (ssRNA)
RNA: GGGAGUUCUACAGUCCGACGAUCGCAGAACAGGGACGCUGCCAGCAGCCACAGUGGUACGGCCAGACUGACGGAUCCGUUGAUUCCUCUCACCGACCCGGGUCUGAAAAGGACUAGGCUGGCAUUGGUGACACCGAGCUUGUUCAACAGAGGAUUGAGCAUCA
B16: 37566520_37566640_2117_CDS_ENSG00000125686_ENST00000300651|human|control|control (ssRNA)
RNA: GGGAGUUCUACAGUCCGACGAUCAUCUUUAAGAAGGUUCAUGAGCAUCGGGUGGUUCUUGGUGUUGCCGGCCAUCGAAGAGACAGGUGGCGGCGUGUGAUGAGGAGGGGUCGGACUCGAGCCAAUGGUAGACCCCCCGUUCCCCAACAGAGGAUUGAGCAUCA
B17: 87704977_87743905_466_CDS_ENSG00000008277_ENST00000398209|human|control|control (ssRNA)
RNA: GGGAGUUCUACAGUCCGACGAUCCAUCCCAUGAAGUCCGUGGCAUGUUGACAAUGCAACAAAUGAGUCAGGGUUUCCUCGGAUAUGGCCCUGGUAGUAACAGUGCUCUCCUCCUUUAACUUCCACAGUCUUGCCUCCAUGUUCCAACAGAGGAUUGAGCAUCA
B18: chr1:167535829:167535830:-_ENSMUSG00000026566_ENSMUST00000068705|mus_mus|motif|central (ssRNA)
RNA: GGGAGUUCUACAGUCCGACGAUCAGGAGGAUUUUUGACAUCGCAGAUAUAGGUGCCAUUGUGAACAGCCUGAAUAUUUUCGGUAUUGAUUGAUGCAUCUUUCUUGUCAAGGUCCCCAGCCCAGGUGACUCGGUCUUUAAAUGGCAACAGAGGAUUGAGCAUCA
B19: chr8:95500983:95500984:-_ENSG00000164944_ENST00000437199|hu_hu|hu_hu_hu_mus_True|68_78 (ssRNA)
RNA: GGGAGUUCUACAGUCCGACGAUCAGAACACAUCUAUCGAGUAAAGGACCGUACAUGGACGACCUCUACCACUGCCUCACUAACAAACUUUCCUCUCGAGCCUCCACUGCCGCUAUUUGUACUAGCCCAGGACGGUCCCAGGCCCAACAGAGGAUUGAGCAUCA
B20: chr3:130449232:130449233:-_ENSG00000196455_ENST00000356763|hu_mus|FALSE|FALSE (ssRNA)
RNA: GGGAGUUCUACAGUCCGACGAUCUUCAUCUACCUCCUCGUUAUCGGGCUCGUUCUCCAUGUUGAGAGUUUUCAGCUGCACAAGCUCCAGGAAUCGCAGAGCCGUCUCGGCCAACAGAGCUAUGUUUUCAGCGUAGGCCAGUCUCAACAGAGGAUUGAGCAUCA
B21: chr2:134423880:134423881:-_ENSMUSG00000034723_ENSMUST00000038228|mus_mus|motif|central (ssRNA)
RNA: GGGAGUUCUACAGUCCGACGAUCUUUCUAGCCUCAAGAGAGUGCUGGGGAGCUGUGGUACCUGAUGUUUCUGACCUGACGGAAACACAUGCUUAACAACGACGGCAAAGACUUCCUGCACUUUAAGGAUGCUCUGGUUUUGCUCAACAGAGGAUUGAGCAUCA
B22: chr1:95368729:95368730:-_ENSG00000117519_ENST00000538964|hu_mus|FALSE|FALSE (ssRNA)
RNA: GGGAGUUCUACAGUCCGACGAUCCAACUGGGGCCAAUUUAGUGAGGAUUCGUUGACUUUCUUCACAGAGCCUGGCUGUAGCUUGUUUAUGAGUUCGCACAAUAUGAUGCCGUCCUUCAGCCCCAGCUGGAAGUUGGUGCCAAUCAACAGAGGAUUGAGCAUCA

For the experiment, the target named is T1, UNK ZnF1-3. As to the kind of experiment: nsRBNS (natural sequence RNA bind-n-seq); RBNS binding buffer (assumed for nsRBNS): 25 mM Tris pH 7.5, 150 mM KCl, 3 mM MgCl2, 0.01% Triton X-100, 500 ug/ml BSA, 20 U/ml SUPERase-In, 4 C; UNK is unkempt and MSI1 is Musashi-1; names of the RNAs are library labels; protein concentration not given here; high values mean tight binding.
B1: the binding signal came to 2.36 enrichment R. Molecule B2 showed a binding signal of 0.707 enrichment R.

For B3, the binding signal came to 0.928 enrichment R. The value for B4 was 1.07 enrichment R; that for B5 was 0.755 enrichment R; that for B6 was 2.08 enrichment R.

Molecule B7 yielded a binding signal of 0.752 enrichment R. The molecule B8 displayed a binding signal of 1.73 enrichment R. B9 displayed a binding signal of 0.4 enrichment R. Take B10: the binding signal stood at 3.25 enrichment R. In the case of B11, the binding signal amounted to 1.14 enrichment R.

The molecule B12 gave a binding signal of 1.07 enrichment R. In turn, B13 had a binding signal of 0.687 enrichment R. Turning to B14, the binding signal is 0.677 enrichment R. B15: the binding signal was 1.02 enrichment R. Regarding B16, the binding signal is 1.11 enrichment R. In turn, B17 came in with a binding signal of 0.828 enrichment R. Next, B18: 0.894 enrichment R; B19: 1.34 enrichment R. As to B20, the binding signal was 1.05 enrichment R. The molecule B21 had a binding signal of 0.624 enrichment R. The value for B22 was 0.608 enrichment R.
